Source: article PMC10244402
These are yes or no findings as the source states them, for the method shown. In cells and extracts the contact can be indirect. Some results given as binding are weak or reduced against the parent protein; the word gives no strength. Each block holds one substance with its values, some of them ahead of it.

Protein sequences, listed by entry. Tags and fused reporters are not part of them. Lines headed by an entry give the natural chain unless they say otherwise; changes in a name come on top. Chains listed by the source or under a name are the forms on record and can include a tag or linker.
FLAG-tagged SIM2s in SUM159-Sim2s cells (Q14190, form named): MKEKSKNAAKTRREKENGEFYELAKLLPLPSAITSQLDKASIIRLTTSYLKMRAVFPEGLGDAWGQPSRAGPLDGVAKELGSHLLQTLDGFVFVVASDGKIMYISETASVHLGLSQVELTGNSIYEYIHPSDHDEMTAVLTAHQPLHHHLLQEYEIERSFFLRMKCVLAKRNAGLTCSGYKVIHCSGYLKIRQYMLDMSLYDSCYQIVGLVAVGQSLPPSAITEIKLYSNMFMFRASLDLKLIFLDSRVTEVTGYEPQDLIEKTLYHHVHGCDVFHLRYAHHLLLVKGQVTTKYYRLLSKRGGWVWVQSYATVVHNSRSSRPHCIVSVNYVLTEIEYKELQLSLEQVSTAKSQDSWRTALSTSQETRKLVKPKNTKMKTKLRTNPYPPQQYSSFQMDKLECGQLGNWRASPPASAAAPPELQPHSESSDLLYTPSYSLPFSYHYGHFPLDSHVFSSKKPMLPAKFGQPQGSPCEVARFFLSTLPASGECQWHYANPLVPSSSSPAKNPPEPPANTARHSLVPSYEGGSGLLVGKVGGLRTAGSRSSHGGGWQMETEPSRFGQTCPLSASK
FLAG-tagged Sim2s-pATMΔ in SUM159 cells (Q14190, form named): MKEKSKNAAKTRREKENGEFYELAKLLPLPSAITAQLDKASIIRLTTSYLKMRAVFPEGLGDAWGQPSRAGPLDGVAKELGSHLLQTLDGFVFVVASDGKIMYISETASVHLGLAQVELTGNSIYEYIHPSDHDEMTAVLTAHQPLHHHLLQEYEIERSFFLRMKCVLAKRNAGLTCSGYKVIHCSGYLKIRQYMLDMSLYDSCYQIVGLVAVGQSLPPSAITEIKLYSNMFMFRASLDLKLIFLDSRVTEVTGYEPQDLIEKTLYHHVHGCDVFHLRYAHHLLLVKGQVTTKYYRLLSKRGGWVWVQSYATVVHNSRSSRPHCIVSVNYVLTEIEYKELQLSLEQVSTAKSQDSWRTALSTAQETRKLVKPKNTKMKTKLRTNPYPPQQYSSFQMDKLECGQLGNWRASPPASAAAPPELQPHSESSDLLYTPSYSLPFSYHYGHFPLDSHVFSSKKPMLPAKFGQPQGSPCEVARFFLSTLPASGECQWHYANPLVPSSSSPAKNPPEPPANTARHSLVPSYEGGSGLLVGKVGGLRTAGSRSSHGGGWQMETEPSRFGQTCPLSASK
UniProt Q62388: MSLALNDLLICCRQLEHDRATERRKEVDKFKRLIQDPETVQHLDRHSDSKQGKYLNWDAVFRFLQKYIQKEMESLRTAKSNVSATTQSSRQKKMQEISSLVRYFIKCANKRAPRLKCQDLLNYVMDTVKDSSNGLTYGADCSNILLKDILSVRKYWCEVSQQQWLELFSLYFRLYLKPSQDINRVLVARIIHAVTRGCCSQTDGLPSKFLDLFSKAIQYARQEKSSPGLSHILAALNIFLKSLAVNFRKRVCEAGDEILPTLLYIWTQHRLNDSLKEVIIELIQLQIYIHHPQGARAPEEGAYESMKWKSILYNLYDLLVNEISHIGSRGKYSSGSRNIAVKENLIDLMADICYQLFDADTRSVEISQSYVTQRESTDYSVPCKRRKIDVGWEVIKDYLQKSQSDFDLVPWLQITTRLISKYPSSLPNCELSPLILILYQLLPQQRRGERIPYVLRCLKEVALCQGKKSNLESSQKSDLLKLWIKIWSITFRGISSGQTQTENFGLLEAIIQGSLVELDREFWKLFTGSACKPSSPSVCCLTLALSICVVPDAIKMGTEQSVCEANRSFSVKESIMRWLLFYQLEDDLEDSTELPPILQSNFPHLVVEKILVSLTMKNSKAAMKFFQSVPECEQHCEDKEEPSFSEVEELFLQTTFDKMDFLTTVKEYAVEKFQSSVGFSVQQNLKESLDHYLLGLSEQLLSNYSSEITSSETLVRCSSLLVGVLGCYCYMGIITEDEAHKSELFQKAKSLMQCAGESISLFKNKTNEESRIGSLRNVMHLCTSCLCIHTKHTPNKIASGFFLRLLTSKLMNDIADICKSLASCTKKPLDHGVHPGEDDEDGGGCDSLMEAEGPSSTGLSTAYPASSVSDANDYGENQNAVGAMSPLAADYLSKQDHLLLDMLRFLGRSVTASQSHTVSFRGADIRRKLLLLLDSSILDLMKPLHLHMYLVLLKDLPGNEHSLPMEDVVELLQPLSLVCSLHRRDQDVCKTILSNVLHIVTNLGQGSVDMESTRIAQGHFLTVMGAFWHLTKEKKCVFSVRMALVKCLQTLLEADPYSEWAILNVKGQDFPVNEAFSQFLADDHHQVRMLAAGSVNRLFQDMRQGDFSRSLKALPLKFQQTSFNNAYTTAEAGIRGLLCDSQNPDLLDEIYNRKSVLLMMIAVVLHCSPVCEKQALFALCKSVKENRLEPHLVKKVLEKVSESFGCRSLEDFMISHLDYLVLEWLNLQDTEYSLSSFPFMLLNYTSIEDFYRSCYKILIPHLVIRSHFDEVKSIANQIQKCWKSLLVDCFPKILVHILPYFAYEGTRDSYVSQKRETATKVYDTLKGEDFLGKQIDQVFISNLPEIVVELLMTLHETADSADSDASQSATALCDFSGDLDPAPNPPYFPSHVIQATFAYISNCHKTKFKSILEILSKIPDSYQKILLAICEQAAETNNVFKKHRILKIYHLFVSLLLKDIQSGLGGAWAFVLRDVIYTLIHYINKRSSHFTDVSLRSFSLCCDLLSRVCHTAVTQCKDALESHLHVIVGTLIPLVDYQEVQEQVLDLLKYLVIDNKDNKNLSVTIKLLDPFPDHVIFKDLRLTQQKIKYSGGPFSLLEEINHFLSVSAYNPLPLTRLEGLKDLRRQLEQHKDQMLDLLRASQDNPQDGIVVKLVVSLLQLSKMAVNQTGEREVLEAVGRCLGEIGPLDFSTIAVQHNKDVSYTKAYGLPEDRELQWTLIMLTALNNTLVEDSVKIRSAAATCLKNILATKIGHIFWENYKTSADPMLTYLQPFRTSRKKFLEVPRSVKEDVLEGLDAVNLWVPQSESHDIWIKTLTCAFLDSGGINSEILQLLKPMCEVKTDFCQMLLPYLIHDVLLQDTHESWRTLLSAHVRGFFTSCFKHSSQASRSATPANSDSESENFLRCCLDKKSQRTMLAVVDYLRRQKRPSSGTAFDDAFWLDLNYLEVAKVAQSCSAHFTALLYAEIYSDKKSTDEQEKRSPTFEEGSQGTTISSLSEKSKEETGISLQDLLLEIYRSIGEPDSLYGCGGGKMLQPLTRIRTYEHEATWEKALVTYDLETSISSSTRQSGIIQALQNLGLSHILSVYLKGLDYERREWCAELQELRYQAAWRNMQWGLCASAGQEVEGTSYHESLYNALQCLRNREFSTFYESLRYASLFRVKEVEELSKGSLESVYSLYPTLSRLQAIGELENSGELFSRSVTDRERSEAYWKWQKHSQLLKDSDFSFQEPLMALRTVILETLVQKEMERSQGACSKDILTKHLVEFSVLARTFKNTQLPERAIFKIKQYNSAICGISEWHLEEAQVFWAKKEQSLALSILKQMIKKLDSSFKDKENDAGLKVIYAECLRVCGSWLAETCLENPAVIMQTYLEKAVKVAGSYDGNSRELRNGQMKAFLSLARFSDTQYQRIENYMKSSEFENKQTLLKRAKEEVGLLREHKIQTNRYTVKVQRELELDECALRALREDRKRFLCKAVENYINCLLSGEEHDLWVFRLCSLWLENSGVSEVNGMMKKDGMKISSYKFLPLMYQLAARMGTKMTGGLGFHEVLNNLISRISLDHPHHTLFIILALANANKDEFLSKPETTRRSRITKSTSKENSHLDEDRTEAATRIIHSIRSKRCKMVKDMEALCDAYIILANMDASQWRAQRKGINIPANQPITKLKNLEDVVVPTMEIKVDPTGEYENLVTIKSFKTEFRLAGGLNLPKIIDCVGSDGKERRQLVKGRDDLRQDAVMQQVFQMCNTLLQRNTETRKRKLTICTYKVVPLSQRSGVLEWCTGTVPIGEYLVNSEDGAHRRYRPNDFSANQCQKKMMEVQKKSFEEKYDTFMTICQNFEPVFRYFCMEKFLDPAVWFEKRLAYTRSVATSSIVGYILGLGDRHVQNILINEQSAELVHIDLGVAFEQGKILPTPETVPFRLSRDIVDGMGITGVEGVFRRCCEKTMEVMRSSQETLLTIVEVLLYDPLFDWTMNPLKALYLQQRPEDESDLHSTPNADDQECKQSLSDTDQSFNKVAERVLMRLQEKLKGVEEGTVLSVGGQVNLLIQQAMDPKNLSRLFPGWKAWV
UniProt O60260: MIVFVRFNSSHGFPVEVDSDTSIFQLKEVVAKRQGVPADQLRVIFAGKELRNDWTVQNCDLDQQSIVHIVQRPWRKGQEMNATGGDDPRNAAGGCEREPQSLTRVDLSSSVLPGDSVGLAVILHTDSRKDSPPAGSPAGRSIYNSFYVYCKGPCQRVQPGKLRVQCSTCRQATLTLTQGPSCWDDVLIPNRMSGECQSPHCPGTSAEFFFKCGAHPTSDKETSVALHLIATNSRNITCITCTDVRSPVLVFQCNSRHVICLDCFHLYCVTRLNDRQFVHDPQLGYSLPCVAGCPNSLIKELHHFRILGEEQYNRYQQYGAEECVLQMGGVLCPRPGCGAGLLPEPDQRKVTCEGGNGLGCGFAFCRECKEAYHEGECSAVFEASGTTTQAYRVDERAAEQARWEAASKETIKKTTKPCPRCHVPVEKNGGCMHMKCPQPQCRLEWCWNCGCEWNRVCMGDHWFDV

Experiments:
[1] = biological target: FLAG-tagged SIM2s (single-minded 2 s) in HC11-Sim2s cells (UniProt Q14190); assay: co-IP; FLAG-conjugated magnetic beads, RIPA lysates of HC11 cells at 24 h of differentiation incubated overnight, five washes in TBS, western blot
[2] = biological target: FLAG-tagged Sim2s-pATMΔ in HC11 cells (UniProt Q14190); assay: as above
[3] = biological target: FLAG-tagged Sim2s-pATMΔ in SUM159 cells (UniProt Q14190); assay: co-IP; co-immunoprecipitation of HA-PRKN and FLAG in control, Sim2s or Sim2s-pATMΔ SUM159 cells
[4] = biological target: FLAG-tagged SIM2s in SUM159-Sim2s cells (UniProt Q14190); assay: as above
[5] = biological target: FLAG-tagged SIM2s in SUM159-Sim2s cells (UniProt Q14190); assay: proximity ligation; Duolink In Situ PLA in fixed, permeabilised SUM159 pLPCX SIM2s-FLAG cells; mouse and rabbit primary antibodies; puncta per cell

binding [1]: binds | binding [2]: no binding
Substance: ATM (ataxia telangiectasia mutated) protein kinase (from UniProt Q62388 1-3066) (enzyme)

binding [3]: no binding | binding [4]: binds
Substance: HA-PRKN (parkin RBR E3 ubiquitin protein ligase) (from UniProt O60260 1-465) (enzyme)

binding [5]: binds
Substance: PRKN (parkin RBR E3 ubiquitin protein ligase) in SUM159 cells, proximity ligation assay (from UniProt O60260 1-465) (enzyme)
